# Experimental data taken from ChEMBL document CHEMBL4888484, “Replenishing the malaria drug discovery pipeline: Screening and hit evaluation of the MMV Hit Generation Library 1 (HGL1) against asexual blood stage Plasmodium falciparum ,using a nano luciferase reporter read-out” (2022).
# Out of some 150,000 compounds screened, about 540 (0.36%) showed an effect of 50% or more. This is one part of the list.
# Test system: Plasmodium falciparum
# Assay: Primary screen in NF54 nanoGlo assay, in single point, at 2uM, 72h; a lower Z score goes with more inhibition
# Assay type: functional, Erythrocyte
# Conditions: timepoint 72 hour
Compound,% Inhibition,Z score
CC(C)c1ccc(-n2nc(-c3ccccc3)nc2CS(C)(=O)=O)cc1,-21%,3.09
Cc1ccc2[nH]c(N3CCC(C(=O)NC4CCCC(C)C4C)CC3)nc2c1 (stereo not drawn),-7%,0.89
O=C(CN1CCN(c2nccc3occc23)CC1)Nc1nncs1,-9%,1.72
CCC(CC)N1CCN(C(=O)[C@@H]2OCCN(C)[C@H]2c2ccccc2)CC1,-2%,0.31
Cc1nnc(-c2ccc3ccn(CC(=O)N4CCN(c5ccccc5)CC4)c3c2)o1,-7%,0.82
CCc1cccc2c(CCNC(=O)NCCc3nc(C)no3)c[nH]c12,-8%,1.07
Cn1cc(CN[C@H]2[C@H](O)[C@H](O)C[C@@H]2c2ccccc2)cn1,35%,-3.96
Cc1onc(C(=O)NCc2ccc3c(c2)OCO3)c1CN1CCOCC1,-19%,1.91
O=C1c2ccccc2N[C@]2(C(=O)Nc3ccccc32)N1CCc1ccccc1,-6%,1.12
O=C(NCc1cccc(C(F)(F)F)c1)C1CCC(c2ccc(F)cc2)N(C(=O)c2ccccc2)C1 (stereo not drawn),-16%,1.54
CC(C)c1ccc(NC(=O)N2CCC[C@@]3(C2)NC(=O)NC3=O)cc1,-1%,0.1
C[C@@H](O)[C@H](N)C(=O)N1CCc2[nH]nc(-c3cccc4ccccc34)c2C1,-2%,0.34
CCC1(CC)NC(=O)N(Cc2ccn(-c3ccccc3)n2)C1=O,3%,-0.49
Cc1ncnc(N2CCN(C3CCCCC3)CC2)c1C,-20%,2.22
O=S(=O)(Oc1ccc(Cc2ncc(C(F)(F)F)cc2Cl)cc1)c1ccccc1Cl,37%,-1.02
CCNC(=O)c1nn(-c2ccc(C)cc2)c(=O)n(Cc2cccnc2)c1=O,-2%,0.28
Cc1cc(C)c2oc(C(=O)N(Cc3cccc(Cl)c3)c3ccccn3)c(C)c2c1,17%,-2
COCCNC(=O)NCc1ccc(-c2ccco2)o1,-1%,0.1
O=S(=O)(C[C@H]1CCCCO1)Nc1cccc(Oc2ccnc3ccccc23)c1,2%,-0.19
O=C(N[C@H]1CCc2ccccc21)N1CCN(c2nccs2)CC1,6%,-1.09
O=C(N[C@H]1CCN(Cc2cscn2)C[C@@H]1O)c1ccc(Cl)s1,1%,-0.12

Compound,% Inhibition,Z score
Cc1cc(Cl)ccc1S(=O)(=O)NCc1nc(C(=O)N2CCCC2)c(C)o1,3%,-0.36
O=C1NCCC[C@@H]1NC(=O)[C@@H]1CN(C(=O)c2cccc(F)c2)CCN1C(=O)c1ccccc1,-10%,1.27
COc1cc(OC)c(C(=O)N2C[C@H]3CCN(C)[C@H]3C2)cc1OC,-12%,1.78
CN(C)C(=O)CN(Cc1nc(-c2cccs2)n[nH]1)c1ccccc1,-5%,0.46
Cc1nc2c(s1)C(N[C@@H]1C=C[C@H](CO)C1)CCC2 (stereo partly drawn),1%,-0.06
O=C(Cn1cnc2nc(N3CCCC3)sc2c1=O)Nc1ccc(F)cc1Cl,-16%,2.65
CNC(=O)[C@@H]1CN(C(=O)Cc2ccccc2Br)C[C@H]1CO,-6%,0.97
Nc1cc2c(c(Cc3cc(N)cc4c3OCOC4)c1)OCOC2,2%,-0.31
COC1CCN(C(=O)NC2CCCC2)CC1,-5%,0.83
CC(C)(C)CNC(=O)c1[nH]cnc1C(=O)NC1CC1,32%,-3.75
Cc1nc2ccccc2nc1N(C)CC(=O)N(C)C,1%,-0.1
Cc1ccc(NC(=O)N2CCN(c3ccc(-c4ccccc4)cc3)C(=O)[C@@H]2C)cc1,-13%,2.14
O=S(=O)(Nc1ccnn1C1CCCC1)c1cccs1,-5%,0.94
Cc1[nH]c(=O)n(C)c(=O)c1CCC(=O)Nc1ccc(C(C)C)cc1,26%,-3.34
CN(Cc1cnn(C)c1)C(=O)c1cc2c(s1)CCC2,-4%,0.53
CN(C)[C@H]1CCN(C(=O)c2cnn(-c3nccc(-c4ccccc4F)n3)c2C2CC2)C1,-2%,0.31
C[C@@H](CCN1CCC(N2CCOC2=O)CC1)c1ccccc1,-11%,1
Cc1ccccc1-c1cc(C(=O)NCCC(c2ccccc2)c2ccccc2)c2ccccc2n1,-7%,1.15
CN(CCc1cccs1)C(=O)[C@@H](N)Cc1ccccc1,-6%,1.02
CC1CN(C(c2ccco2)c2sc3ncnn3c2O)CC(C)O1 (stereo not drawn),-15%,2.86
CCN(Cc1nccn1C)C(=O)c1cccc(C)n1,-6%,1.21

Compound,% Inhibition,Z score
CS(=O)(=O)N[C@H]1CCN(C(=O)CC2=CCCCC2)C1,1%,-0.11
COc1cc(Cl)cc(C(=O)N2CCCN(C)C3(CCN(C)CC3)C2)c1,-1%,0.14
CCc1nccn1CCCNS(=O)(=O)c1ccc(OC)c2c1CCCC2,-12%,1.29
CCNC(=O)N1CCC(N(Cc2ccc(F)cc2)C(=O)CN(C2CC2)S(=O)(=O)c2ccc(C)cc2)CC1,2%,-0.2
CNC(=O)C[C@H]1CCN(C(=O)CCC(F)(F)F)C1,14%,-1.83
C[C@H](NS(C)(=O)=O)C(=O)NC(C)(C)c1ccc(F)cc1Cl,-2%,0.28
Cc1nc(C)c(-c2ccc(C(=O)NCCCN3CCC[C@H](O)C3)cc2)s1,-9%,1.13
CCc1nccc(-c2nccn2C2CCCC2)n1,-1%,0.14
CC(C)(C)OC(=O)N1CCN([C@H]2CCCN(Cc3cc(=O)n4nccc4[nH]3)C2)C(=O)C1,-4%,0.74
Cc1ccc(OCCNC(=O)C2CCCC2)cc1C,-14%,1.51
COc1ccnc(N(C)Cc2nncn2C)n1,9%,-1.21
COc1ccc(CCN2C(=O)N[C@@H](CC(=O)Nc3cc(C)n(C)n3)C2=O)cc1,-6%,0.75
COc1ccc(C(=O)N2CCCC[C@@]23CCOC3)o1,-14%,2.58
CCOc1ccc(-c2c3n(c4ccc(O)cc24)CCc2cc(OCC)c(OCC)cc2-3)cc1OCC,0%,0
O=C(c1ccccc1OCC1CCCO1)N1CC2CCCC2C1 (stereo not drawn),-11%,1.53
CCCOCc1ccccc1CNC(=O)N1CCC2(CCOCC2)C1,35%,-3.91
Cc1cc(C)c(NC(=O)CCn2c(=O)c(C)nc3cc(C)c(C)cc32)c(C)c1,34%,-1.01
Cc1cccc(C)c1OCC(O)CNC1CCS(=O)(=O)C1 (stereo not drawn),-7%,0.98
Cc1ccc(-c2ncc(C(=O)N(C)Cc3cnn(C)c3)c(O)n2)cc1,-5%,0.91
CC(=O)Nc1cccc(NCC(=O)N(Cc2ccc(C)o2)C2CC2)c1,3%,-0.46
CN(C(=O)c1ccc(-n2cccn2)nc1)C1CCCCCCC1,2%,-0.24

Compound,% Inhibition,Z score
CCO[C@H]1CCCN(C(=O)c2ccc3c(c2)NCC3)C1,-6%,0.73
O=C(NCc1ccccn1)[C@H]1CCCN(C2CCN(Cc3ccccc3F)CC2)C1,-3%,0.57
Cc1cc(C)c(S(=O)(=O)N(CCCc2ccccc2)CC(=O)N2CCNCC2)cc1C,8%,-0.9
Cc1cc(Cc2nc(-c3c4n(c(C)cc3=O)CCC4)no2)no1,1%,-0.15
O=C(c1cccc(-n2cnnn2)c1)N1CCn2c1nc1ccccc12,2%,-0.23
CC1(C)NC(=O)N(CNc2ccc(Oc3ccccc3)cc2)C1=O,-32%,3.71
CC(C)[C@H]1NC(=O)[C@@H](Cc2c[nH]c3ccccc23)NC1=O,-6%,1.15
COc1ccc(CCC(=O)N2CC(F)(F)C[C@H]2c2nncn2Cc2ccc(F)cc2)cc1,2%,-0.25
CC(C)NS(=O)(=O)c1cccnc1N1CCC(O)(C(F)(F)F)CC1,0%,0
COc1ccc(CN2C[C@H]3CC=CC[C@H]3C2)cc1Cn1cccn1,-21%,2.78
O=C(NCC(=O)N1CCC1)c1cccc(Cl)c1,-11%,1.92
COc1cc(C(=O)N2Cc3ncccc3N3CCC[C@H]3C2)sn1,-4%,0.6
Cn1c(NC(=O)CCN2CCCS2(=O)=O)nc2cccc(Cl)c21,-9%,0.95
Cc1c(Cl)cccc1NC(=O)CCNc1cc(C#N)ccn1,3%,-0.45
O=S(=O)(Cc1c(Cl)cccc1Cl)N[C@H]1CCCNC1,7%,-1.17
CC(C)c1nc(N2CCCN(S(=O)(=O)c3ccccc3)CC2)c2cnn(-c3ccccc3)c2n1,-17%,1.69
O=C(N[C@]1(CO)COc2ccccc2C1)c1csnn1,-5%,0.93
CC(C(=O)Nc1ccccc1-c1ccccc1)N1CCCC1c1cccn1C (stereo not drawn),-2%,0.44
O=C(NC1CCCC1)[C@@H](c1ccccc1)N1CCS(=O)(=O)CC1,7%,-0.84
CCn1cnnc1[C@H](C)NC(=O)c1coc(COc2ccc(F)cc2)n1,1%,-0.11
COCCNC(=O)[C@H]1CCCN(c2nc(C)nc3oc(C)c(C)c23)C1,-9%,0.86
